Test results reported in patent US7550150B2, “Methods of treating or preventing a disease, disorder or condition associated with a viral infection” (Barros Research Institute, priority 2005, dated 2009).

Assays:
[1] = tested on: Influenza A/NWS/33 (H1N1) virus; type: in vivo, BALB/c mice; conditions: for Mean Day to Death ± SD: mice dying prior to day 21
[2] = tested on: Influenza A/NWS/33 (H1N1) virus; type: in vivo, BALB/c mice; conditions: for Mean Day to Death ± SD: mice dying prior to day 21; remark: listed apart in the source
[3] = tested on: Influenza A/NWS/33 (H1N1) virus; type: in vivo, BALB/c mice
[4] = tested on: Punta Toro virus, Adames strain; parameters: species or system C57BL/6 mice; conditions: mouse, in vivo, ip
[5] = tested on: Punta Toro virus, Adames strain; parameters: species or system C57BL/6 mice; conditions: mouse, in vivo, ip; remark: listed apart in the source
[6] = 37.5 mg/injection i.p. bid × 5 beg. −4 h
[7] = 75 mg/kg/day i.p. bid x5 beg. 4 h pre-virus
[8] = 75 mg/kg/day i.p. bid × 5 beg 4 h pre
[9] = 10 μg/injection i.p. days 0, 3, 6
[10] = 100 μg/injection i.p. days 0, 3, 6
[11] = 500 μg/injection i.p. days 0, 3, 6
[12] = 0.5 ng/kg/day i.p. qd x5 beg. 24 h post-virus
[13] = 5 ng/kg/day i.p. qd x5 beg. 24 h post-virus
[14] = 50 ng/kg/day i.p. qd x5 beg. 24 h post-virus
[15] = 500 ng/kg/day i.p. qd x5 beg. 24 h post-virus
[16] = 5000 ng/kg/day i.p. qd x5 beg. 24 h post-virus
[17] = 0.1 μg/inj. i.p + i.n. days 0, 3, 6
[18] = 1 μg/inj. i.p + i.n. days 0, 3, 6
[19] = 10 μg/inj. i.p + i.n. days 0, 3, 6

NC(=O)c1ncn([C@@H]2O[C@H](CO)[C@@H](O)[C@H]2O)n1 [Ribavirin, reference compound]
Infected, Treated Mice Surv/Total [1, 6]: 8/8*** | Mean Day 11 SaO2 (% ± SD) [1, 6]: 83.5 ± 1.9 % | Infected, Treated Mice Surv/Total [2, 7]: 10/10*** | Mean Day 11 SaO2 (% ± SD) [2, 7]: 85.1 ± 2.6 % | protection from death [2, 7]: 100% | Infected, Treated Mice Surv/Total [3, 8]: 10/10*** | Mean Day 11 SaO2 (% ± SD) [3, 8]: 87.2 ± 5.5 %

B1: rBBX-01: Recombinant Apicomplexa-related protein (ARP) having the sequence of SEQ ID NO:20; termed Barrogen, also called rBBX-01 or E1 (protein, listed as Eimeria tenella)
chain: GEEADTQAWDTSVREWLVDTGRVFAGGVASIADGCRLFGAAVEGEGNAWEELVKTNYQIEVPQEDGTSISVDCDEAETLRQAVVDGRAPNGVYIGGTKYKLAEVKRDFTFNDQNYDVAILGKNKGGGFLIKTPNENVVIALYDEEKEQNKADALTTALNFAEYLYQGGF
Infected, Treated Mice Surv/Total [4]: 11/11*** | Mean Day to Death ± SD [4]: >21.0 ± 0.0 | Infected, Treated Mice Surv/Total ([1]; 10 μg/injection i.p. day 0): 1/10 | Mean Day 11 SaO2 (% ± SD) ([1]; 10 μg/injection i.p. day 0): 78.3 ± 4.3% | Mean Day to Death ± SD ([1]; 10 μg/injection i.p. day 0): 13.3 ± 3.0 days | animals survived / prevented from dying ([1]; 10 μg/injection i.p. days 0 (4 h post-virus) and 3): 60% | Infected, Treated Mice Surv/Total ([1]; 10 μg/injection i.p. days 0, 3): 6/10*** | Mean Day 11 SaO2 (% ± SD) ([1]; 10 μg/injection i.p. days 0, 3): 79.6 ± 3.7 % | Infected, Treated Mice Surv/Total [1, 9]: 3/10* | Mean Day 11 SaO2 (% ± SD) [1, 9]: 78.9 ± 5.0 % | preventing death of infected mice [1, 9]: 30% | Mean Day to Death ± SD [1, 9]: 11.1 ± 0.9 days | Mean Day to Death ± SD ([1]; 10 μg/injection i.p. days 0, 3): 15.5 ± 4.0 days | Infected, Treated Mice Surv/Total ([1]; 10 μg/injection i.p. days 0, 6): 0/10 | Mean Day 11 SaO2 (% ± SD) ([1]; 10 μg/injection i.p. days 0, 6): 77.8 ± 3.7 % | Mean Day to Death ± SD ([1]; 10 μg/injection i.p. days 0, 6): 12.2 ± 2.9 days | Infected, Treated Mice Surv/Total [1, 10]: 1/10 | Mean Day 11 SaO2 (% ± SD) [1, 10]: 76.3 ± 2.6% | Mean Day to Death ± SD [1, 10]: 11.3 ± 2.6 days | Infected, Treated Mice Surv/Total [1, 11]: 1/10 | Mean Day 11 SaO2 (% ± SD) [1, 11]: 75.9 ± 2.8% | Mean Day to Death ± SD [1, 11]: 10.6 ± 2.9 days | efficacy ([1]; 500 and 100 μg/injection, 3 day treatment schedule): not considered efficacious | efficacy compared with other immunomodulatory substances in influenza in mice ([1]; ranking Met-Enk>polyprenol>polyICLC>Ampligen®>IM-862=Imu Vert>BCH 527): approximately the same as Met-Enk and polyprenol | Infected, Treated Mice Surv/Total [5]: 11/11*** | Mean Day to Death ± SD [5]: >21.0 ± 0.0 | Infected, Treated Mice Surv/Total [2, 12]: 0/10 | Mean Day 11 SaO2 (% ± SD) [2, 12]: 75.0 ± 0.0% | Mean Day to Death ± SD [2, 12]: 9.1 ± 1.1 days | Infected, Treated Mice Surv/Total [2, 13]: 0/10 | Mean Day 11 SaO2 (% ± SD) [2, 13]: 75.0 ± 0.0% | Mean Day to Death ± SD [2, 13]: 8.9 ± 1.6 days | Infected, Treated Mice Surv/Total [2, 14]: 0/10 | Mean Day 11 SaO2 (% ± SD) [2, 14]: 75.0 ± 0.0% | Mean Day to Death ± SD [2, 14]: 8.7 ± 1.2 days | Infected, Treated Mice Surv/Total [2, 15]: 0/10 | Mean Day 11 SaO2 (% ± SD) [2, 15]: 77.3 ± 4.8% | Mean Day to Death ± SD [2, 15]: 9.9 ± 2.3 days | Infected, Treated Mice Surv/Total [2, 16]: 0/10 | Mean Day 11 SaO2 (% ± SD) [2, 16]: 76.3 ± 2.6% | Mean Day to Death ± SD [2, 16]: 10.3 ± 1.6 days | SaO2 decline ([2]; 5000 ng/kg/day, days 7 and 8 (FIG. 1)): significantly inhibited | Lung scores ([2]; 5000 and 500 ng/kg/day, day 3 (FIG. 2)): significantly inhibited | lung virus titers ([2]; all doses, either time the lungs were assayed (FIG. 4)): No inhibition | Delay in mean day to death ([2]; highest dosage (5000 ng/kg/day) vs saline, P>0.05): 0.8 days | Infected, Treated Mice Surv/Total ([3]; 0.1 μg/inj. i.n. days 0, 3, 6): 0/10 | Mean Day 11 SaO2 (% ± SD) ([3]; 0.1 μg/inj. i.n. days 0, 3, 6): 75.8 ± 2.5% | Mean Day to Death ± SD ([3]; 0.1 μg/inj. i.n. days 0, 3, 6): 9.9 ± 1.0 days | Infected, Treated Mice Surv/Total ([3]; 0.1 μg/inj. i.p + i.n. (total double dose) days 0, 3, 6): 1/10 | Mean Day 11 SaO2 (% ± SD) [3, 17]: 76.2 ± 3.8% | Mean Day to Death ± SD [3, 17]: 8.8 ± 0.7 days | Infected, Treated Mice Surv/Total ([3]; 0.1 μg/inj. i.p. days 0, 3, 6): 10/10*** | Mean Day 11 SaO2 (% ± SD) ([3]; 0.1 μg/inj. i.p. days 0, 3, 6): 86.7 ± 7.9 % | Mean Day to Death ± SD ([3]; 0.1 μg/inj. i.p. days 0, 3, 6): >21.0 ± 0.0 days | Infected, Treated Mice Surv/Total ([3]; 1 μg/inj. i.n. days 0, 3, 6): 0/10 | Mean Day 11 SaO2 (% ± SD) ([3]; 1 μg/inj. i.n. days 0, 3, 6): 78.4 ± 5.6% | Mean Day to Death ± SD ([3]; 1 μg/inj. i.n. days 0, 3, 6): 11.1 ± 3.1 days | Infected, Treated Mice Surv/Total ([3]; 1 μg/inj. i.p + i.n. (total double dose) days 0, 3, 6): 0/10 | Mean Day 11 SaO2 (% ± SD) [3, 18]: 75.0 ± 0.0% | Mean Day to Death ± SD [3, 18]: 9.0 ± 0.5 days | Infected, Treated Mice Surv/Total ([3]; 1 μg/inj. i.p. days 0, 3, 6): 8/10*** | Mean Day 11 SaO2 (% ± SD) ([3]; 1 μg/inj. i.p. days 0, 3, 6): 84.1 ± 4.0 % | Mean Day to Death ± SD ([3]; 1 μg/inj. i.p. days 0, 3, 6): 13.5 ± 0.7 days | Infected, Treated Mice Surv/Total ([3]; 10 μg/inj. i.n. days 0, 3, 6): 0/10 | Mean Day 11 SaO2 (% ± SD) ([3]; 10 μg/inj. i.n. days 0, 3, 6): 75.9 ± 2.8% | Mean Day to Death ± SD ([3]; 10 μg/inj. i.n. days 0, 3, 6): 10.2 ± 2.1 days | Infected, Treated Mice Surv/Total ([3]; 10 μg/inj. i.p + i.n. (total double dose) days 0, 3, 6): 0/10 | Mean Day 11 SaO2 (% ± SD) [3, 19]: 75.0 ± 0.0% | Mean Day to Death ± SD [3, 19]: 8.5 ± 0.7 days | Infected, Treated Mice Surv/Total ([3]; 10 μg/inj. i.p. days 0, 3, 6): 9/10*** | Mean Day 11 SaO2 (% ± SD) ([3]; 10 μg/inj. i.p. days 0, 3, 6): 84.1 ± 4.6 % | Mean Day to Death ± SD ([3]; 10 μg/inj. i.p. days 0, 3, 6): 18.0 ± 0.0 days | mean lung virus titers reduced compared to the placebo control ([3]; all groups treated i.p., day 6): 0.4-0.8 log10 | lung virus titer reduction ([3]; i.n.+i.p treated group, lowest drug dosage): 1.4 log10 | lung virus titer reduction ([3]; i.p. 10 μg dose, day 1): 0.7 log10

Read-outs that look alike come from different tables or passages of the source. Marks after values point to notes of the source that are not given here.
